{"source": "patent US7772236B2", "about": "“Substituted pyrazoles” (Ortho McNeil Pharmaceutical, Inc., priority 2000, dated 2010)", "note": "pIC50: −log10 of the molar value.", "data": [{"biological_target": "Recombinant human cathepsin S (CatS) (Homo sapiens, UniProt P25774)", "test": "biochemical", "values": [{"smiles": "CS(=O)(=O)N1CCc2c(c(-c3ccc(C(F)(F)F)cc3)nn2CCCN2CCN(C3=NS(=O)(=O)c4ccccc43)CC2)C1", "note": "[Example 22, 1-{3-[4-(1,1-Dioxo-1H-1λ^6-benzo[d]isothiazol-3-yl)-piperazin-1-yl]-propyl}-5-methanesulfonyl-3-(4-trifluoromethyl-phenyl)-4,5,6,7-tetrahydro-1H-pyrazolo[4,3-c]pyridine]", "pIC50": 5.67}, {"smiles": "CC(=O)N1CCc2c(c(-c3ccc(C(F)(F)F)cc3)nn2CC(O)CN2CCN(c3nc4ccc(Cl)cc4s3)CC2)C1", "note": "(stereo not drawn) [Example 23, 1-[1-{3-[4-(6-Chloro-benzothiazol-2-yl)-piperazin-1-yl]-2-hydroxy-propyl}-3-(4-trifluoromethyl-phenyl)-1,4,6,7-tetrahydro-pyrazolo[4,3-c]pyridin-5-yl]-ethanone]", "pIC50": 5.96}, {"smiles": "CC(=O)N1CCc2c(c(-c3ccc(C(F)(F)F)cc3)nn2CC(O)CN2CCN(c3noc4ccccc34)CC2)C1", "note": "(stereo not drawn) [Example 24, 1-[1-[3-(4-Benzo[d]isoxazol-3-yl-piperazin-1-yl)-2-hydroxy-propyl]-3-(4-trifluoromethyl-phenyl)-1,4,6,7-tetrahydro-pyrazolo[4,3-c]pyridin-5-yl]-ethanone]", "pIC50": 6.33}, {"smiles": "CS(=O)(=O)N1CCc2c(c(-c3ccc(C(F)(F)F)cc3)nn2CC(O)CN2CCN(c3c(N)cccc3Cl)CC2)C1", "note": "(stereo not drawn) [Example 25, 1-[4-(2-Amino-6-chloro-phenyl)-piperazin-1-yl]-3-[5-methanesulfonyl-3-(4-trifluoromethyl-phenyl)-4,5,6,7-tetrahydro-pyrazolo[4,3-c]pyridin-1-yl]-propan-2-ol]", "pIC50": 7.40}, {"smiles": "CNC(=O)Nc1cccc(Cl)c1N1CCN(CCCn2nc(-c3ccc(C(F)(F)F)cc3)c3c2CCN(S(C)(=O)=O)C3)CC1", "note": "[Example 26, 1-[3-Chloro-2-(4-{3-[5-methanesulfonyl-3-(4-trifluoromethyl-phenyl)-4,5,6,7-tetrahydro-pyrazolo[4,3-c]pyridin-1-yl]-propyl}-piperazin-1-yl)-phenyl]-3-methyl-urea]", "pIC50": 7.40}, {"smiles": "CNC(=O)Nc1cccc(Cl)c1N1CCN(CC(O)Cn2nc(-c3ccc(C(F)(F)F)cc3)c3c2CCN(S(C)(=O)=O)C3)CC1", "note": "(stereo not drawn) [Example 27, 1-[3-Chloro-2-(4-{2-hydroxy-3-[5-methanesulfonyl-3-(4-trifluoromethyl-phenyl)-4,5,6,7-tetrahydro-pyrazolo[4,3-c]pyridin-1-yl]-propyl}-piperazin-1-yl)-phenyl]-3-methyl-urea]", "pIC50": 7.40}, {"smiles": "COC(=O)c1cccc(N)c1N1CCN(CC(O)Cn2nc(-c3ccc(C(F)(F)F)cc3)c3c2CCN(S(C)(=O)=O)C3)CC1", "note": "(stereo not drawn) [Example 28, 3-Amino-2-(4-{2-hydroxy-3-[5-methanesulfonyl-3-(4-trifluoromethyl-phenyl)-4,5,6,7-tetrahydro-pyrazolo[4,3-c]pyridin-1-yl]-propyl}-piperazin-1-yl)-benzoic acid methyl ester]", "pIC50": 7.15}, {"smiles": "CS(=O)(=O)N1CCc2c(c(-c3ccc(C(F)(F)F)cc3)nn2CCCN2CCN(c3c(N)cccc3Cl)CC2)C1", "note": "[Example 29, 3-Chloro-2-(4-{3-[5-methanesulfonyl-3-(4-trifluoromethyl-phenyl)-4,5,6,7-tetrahydro-pyrazolo[4,3-c]pyridin-1-yl]-propyl}-piperazin-1-yl)-phenylamine]", "pIC50": 7.15}, {"smiles": "CNC(=O)Nc1cccc(Cl)c1N1CCN(CC(O)Cn2nc(-c3ccc(Br)cc3)c3c2CCN(S(C)(=O)=O)C3)CC1", "note": "(stereo not drawn) [Example 30, 1-[2-(4-{3-[3-(4-Bromo-phenyl)-5-methanesulfonyl-4,5,6,7-tetrahydro-pyrazolo[4,3-c]pyridin-1-yl]-2-hydroxy-propyl}-piperazin-1-yl)-3-chloro-phenyl]-3-methyl-urea]", "pIC50": 7.10}, {"smiles": "CS(=O)(=O)Nc1cccc(Cl)c1N1CCN(CCCn2nc(-c3ccc(C(F)(F)F)cc3)c3c2CCN(C(N)=O)C3)CC1", "note": "[Example 31, 1-{3-[4-(2-Chloro-6-methanesulfonylamino-phenyl)-piperazin-1-yl]-propyl}-3-(4-trifluoromethyl-phenyl)-1,4,6,7-tetrahydro-pyrazolo[4,3-c]pyridine-5-carboxylic acid amide]", "pIC50": 7.00}, {"smiles": "COC(=O)Nc1cccc(Cl)c1N1CCN(CCCn2nc(-c3ccc(C(F)(F)F)cc3)c3c2CCN(S(C)(=O)=O)C3)CC1", "note": "[Example 32, [3-Chloro-2-(4-{3-[5-methanesulfonyl-3-(4-trifluoromethyl-phenyl)-4,5,6,7-tetrahydro-pyrazolo[4,3-c]pyridin-1-yl]-propyl}-piperazin-1-yl)-phenyl]-carbamic acid methyl ester]", "pIC50": 7.00}, {"smiles": "NC(=O)N1CCc2c(c(-c3ccc(Br)cc3)nn2CCCN2CCN(c3nsc4ccccc34)CC2)C1", "note": "[Example 33, 1-[3-(4-Benzo[d]isothiazol-3-yl-piperazin-1-yl)-propyl]-3-(4-bromo-phenyl)-1,4,6,7-tetrahydro-pyrazolo[4,3-c]pyridine-5-carboxylic acid amide]", "pIC50": 7.00}, {"smiles": "COC(=O)c1cccc([N+](=O)[O-])c1N1CCN(CC(O)Cn2nc(-c3ccc(C(F)(F)F)cc3)c3c2CCN(C(C)=O)C3)CC1", "note": "(stereo not drawn) [Example 34, 2-(4-{3-[5-Acetyl-3-(4-trifluoromethyl-phenyl)-4,5,6,7-tetrahydro-pyrazolo[4,3-c]pyridin-1-yl]-2-hydroxy-propyl}-piperazin-1-yl)-3-nitro-benzoic acid methyl ester]", "pIC50": 6.96}, {"smiles": "CS(=O)(=O)N1CCc2c(c(-c3ccc(C(F)(F)F)cc3)nn2CC(O)CN2CCN(c3c(Cl)cccc3[N+](=O)[O-])CC2)C1", "note": "(stereo not drawn) [Example 35, 1-[4-(2-Chloro-6-nitro-phenyl)-piperazin-1-yl]-3-[5-methanesulfonyl-3-(4-trifluoromethyl-phenyl)-4,5,6,7-tetrahydro-pyrazolo[4,3-c]pyridin-1-yl]-propan-2-ol]", "pIC50": 6.92}, {"smiles": "CS(=O)(=O)N1CCc2c(c(-c3ccc(I)cc3)nn2CC(O)CN2CCN(c3ccccc3C#N)CC2)C1", "note": "(stereo not drawn) [Example 36, 2-(4-{2-Hydroxy-3-[3-(4-iodo-phenyl)-5-methanesulfonyl-4,5,6,7-tetrahydro-pyrazolo[4,3-c]pyridin-1-yl]-propyl}-piperazin-1-yl)-benzonitrile]", "pIC50": 6.92}, {"smiles": "NC(=O)N1CCc2c(c(-c3ccc(Br)cc3)nn2CCCN2CCN(c3ccccc3[N+](=O)[O-])CC2)C1", "note": "[Example 37, 3-(4-Bromo-phenyl)-1-{3-[4-(2-nitro-phenyl)-piperazin-1-yl]-propyl}-1,4,6,7-tetrahydro-pyrazolo[4,3-c]pyridine-5-carboxylic acid amide]", "pIC50": 6.92}, {"smiles": "CC(=O)N1CCc2c(c(-c3ccc(I)cc3)nn2CC(O)CN2CCN(c3ccccc3C#N)CC2)C1", "note": "(stereo not drawn) [Example 38, 2-(4-{3-[5-Acetyl-3-(4-iodo-phenyl)-4,5,6,7-tetrahydro-pyrazolo[4,3-c]pyridin-1-yl]-2-hydroxy-propyl}-piperazin-1-yl)-benzonitrile]", "pIC50": 6.92}, {"smiles": "COc1ccccc1N1CCN(CC(O)Cn2nc(-c3ccc(Cl)cc3)c3c2CCN(C(C)=O)C3)CC1", "note": "(stereo not drawn) [Example 103, 1-(3-(4-Chloro-phenyl)-1-{2-hydroxy-3-[4-(2-methoxy-phenyl)-piperazin-1-yl]-propyl}-1,4,6,7-tetrahydro-pyrazolo[4,3-c]pyridin-5-yl)-ethanone]", "pIC50": 5.68}, {"smiles": "COc1cccc(N2CCN(CC(O)Cn3nc(-c4ccc(Cl)cc4)c4c3CCN(C(C)=O)C4)CC2)c1", "note": "(stereo not drawn) [Example 109, 1-(3-(4-Chloro-phenyl)-1-{2-hydroxy-3-[4-(3-methoxy-phenyl)-piperazin-1-yl]-propyl}-1,4,6,7-tetrahydro-pyrazolo[4,3-c]pyridin-5-yl)-ethanone]", "pIC50": 5.92}, {"smiles": "CC(=O)N1CCc2c(c(-c3ccc(Cl)cc3)nn2CC(O)CN2CCN(C3c4ccccc4-c4ccccc43)CC2)C1", "note": "(stereo not drawn) [Example 114, 1-(3-(4-Chloro-phenyl)-1-{3-[4-(9H-fluoren-9-yl)-piperazin-1-yl]-2-hydroxy-propyl}-1,4,6,7-tetrahydro-pyrazolo[4,3-c]pyridin-5-yl)-etha none]", "pIC50": 5.96}, {"smiles": "COc1ccccc1N1CCN(C(=O)CCCn2nc(-c3ccc(Cl)cc3)c3c2CCN(C(C)=O)C3)CC1", "note": "[Example 120, 4-[5-Acetyl-3-(4-chloro-phenyl)-4,5,6,7-tetrahydro-pyrazolo[4,3-c]pyridin-1-yl]-1-[4-(2-methoxy-phenyl)-piperazin-1-yl]-butan-1-one]", "pIC50": 4.92}, {"smiles": "COc1ccccc1N1CCN(CC(O)Cn2nc(-c3ccc(C)cc3)c3c2CCN(C(C)=O)C3)CC1", "note": "(stereo not drawn) [Example 121, 1-(1-{2-Hydroxy-3-[4-(2-methoxy-phenyl)-piperazin-1-yl]-propyl}-3-p-tolyl-1,4,6,7-tetrahydro-pyrazolo[4,3-c]pyridin-5-yl)-ethanone]", "pIC50": 5.37}, {"smiles": "CC(=O)N1CCc2c(c(-c3ccc(Cl)cc3)nn2CC(O)CN2CCN(c3ccccn3)CC2)C1", "note": "(stereo not drawn) [Example 123, 1-{3-(4-Chloro-phenyl)-1-[2-hydroxy-3-(4-pyridin-2-yl-piperazin-1-yl)-propyl]-1,4,6,7-tetrahydro-pyrazolo[4,3-c]pyridin-5-yl}-ethanone]", "pIC50": 5.72}, {"smiles": "COc1ccc(-c2nn(CC(O)CN3CCN(c4ccccc4OC)CC3)c3c2CN(C(C)=O)CC3)cc1", "note": "(stereo not drawn) [Example 126, 1-[1-{2-Hydroxy-3-[4-(2-methoxy-phenyl)-piperazin-1-yl]-propyl}-3-(4-methoxy-phenyl)-1,4,6,7-tetrahydro-pyrazolo[4,3-c]pyridin-5-yl]-ethanone]", "pIC50": 5.13}, {"smiles": "COc1ccccc1N1CCN(CC(O)Cn2nc(-c3ccc4ccccc4c3)c3c2CCN(C(C)=O)C3)CC1", "note": "(stereo not drawn) [Example 131, 1-(1-{2-Hydroxy-3-[4-(2-methoxy-phenyl)-piperazin-1-yl]-propyl}-3-naphthalen-2-yl-1,4,6,7-tetrahydro-pyrazolo[4,3-c]pyridin-5-yl)-ethanone]", "pIC50": 5.66}, {"smiles": "COc1ccccc1N1CCN(CC(O)Cn2nc(-c3ccc(Cl)cc3)c3c2CCN(C(N)=O)C3)CC1", "note": "(stereo not drawn) [Example 137, 3-(4-Chloro-phenyl)-1-{2-hydroxy-3-[4-(2-methoxy-phenyl)-piperazin-1-yl]-propyl}-1,4,6,7-tetrahydro-pyrazolo[4,3-c]pyridine-5-carboxylic acid amide]", "pIC50": 6.01}, {"smiles": "COc1ccccc1N1CCN(CC(O)Cn2nc(-c3ccc(Cl)c(Cl)c3)c3c2CCN(C(C)=O)C3)CC1", "note": "(stereo not drawn) [Example 139, 1-(3-(3,4-Dichloro-phenyl)-1-{2-hydroxy-3-[4-(2-methoxy-phenyl)-piperazin-1-yl]-propyl}-1,4,6,7-tetrahydro-pyrazolo[4,3-c]pyridin-5-yl)-ethanone]", "pIC50": 6.15}]}]}
